According to PubChem BioAssay AID624418 (National Center for Advancing Translational Sciences (NCATS), 2012):
The campaign covered roughly 410,000 compounds. About 530 (0.13%) were called active. This list was built around the results that the source calls inconclusive (neither active nor inactive); the mix of calls is not that of the screen. The call rests on the fitted dose curve; in most records, active means well fitted inhibition curve with a large enough effect; inconclusive means small, poorly fitted or top-dose-only effect, or another doubt; inactive means no such curve, though single readings can be large or run the other way. Potencies of inconclusive entries are doubtful fits and often do not repeat.

assay: qHTS of GLP-1 Receptor Inverse Agonists: Cytotox Screen; conditions: HEK293 cAMP-luciferase reporter cells, luminescence, 24 h; activity change, negative = inhibition: at 38.3 µM (top of the series) unless noted
Summary of the method: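 Luminescence readout: signal drop marks cytotoxicity. Plated cells grew 12 h at 37 °C, 5% CO2, received 23 nL compound for 24 h, then got luciferase reagent, read after 12 min at RT.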
On the % scale 0 is the no-effect control and ±100 the full control effect; potency means the concentration at half of the fitted maximal effect.

Compound	Potency	activity change, negative = inhibition
O=c1cnn(-c2ccccc2)c(-c2ccccc2)c1	inconclusive: 35.5 µM [inhibitor, partial curve, poor fit]	
Nc1nonc1-n1nnc(C(=O)N/N=C/c2cccs2)c1-c1ccc2c(c1)OCO2	inconclusive: 12.6 µM [inhibitor, partial curve, poor fit]	
COc1ccc(-c2nnc(SCC(=O)Nc3cc(C)on3)o2)cc1	inconclusive: 28.2 µM [inhibitor, single point]	
CCc1ccc(NC(=O)CSc2ccc(-c3ccccn3)nn2)cc1	inconclusive: 28.2 µM [inhibitor, single point]	
O=C(NC(=S)NC1CCCc2ccccc21)c1ccco1 (stereo not drawn)	inconclusive: 28.2 µM [inhibitor, single point]	
Cc1cc(C)nc(/N=C(\N)Nc2ccc(OCCC(C)C)cc2)n1	inconclusive: 11.2 µM [inhibitor, single point]	
COc1cccc(/C=N/NC(=O)C(C)n2nc(C)c([N+](=O)[O-])c2C)c1O (stereo not drawn)	inconclusive: 3.98 µM [inhibitor, partial curve]	
CC1=C(c2ccc(C(C)C)cc2)S(=O)(=O)NC1=NCCCN1CCN(c2ccccc2F)CC1	inactive	
Cc1cc(N2CCOCC2)nc2ccc(NC(=O)CCC(=O)N3CCCCC3)cc12	inactive	
Cc1cc(OCCCn2c(CCNC(=O)C3CCCCC3)nc3ccccc32)ccc1Cl	inactive	
Cc1cc(Br)cc2c1N(C)C(=O)C2(c1ccc(O)cc1)c1ccc(O)cc1	inconclusive: 22.4 µM [inhibitor, partial curve, poor fit]	
COc1cc(/C=C/c2nc(-c3ccccc3O)n[nH]2)cc(OC)c1OC	inconclusive: 28.2 µM [inhibitor, partial curve, poor fit]	
Cc1nn(C)c2c1c(C(F)(F)F)cc(=O)n2C(C)C(=O)NCCc1ccccc1 (stereo not drawn)	inactive	
CC1=NN(c2nc3ccccc3[nH]2)C(=O)/C1=C/N(C)C	inactive	
O=C1Nc2ccccc2/C1=C/C(=O)c1cccs1	inconclusive: 10 µM [inhibitor, partial curve, poor fit]	
CCC12CCC3c4ccc(O)cc4CCC3C1CC(O)C2O (stereo not drawn)	inconclusive: 22.4 µM [inhibitor, single point]	
NC(=O)CSc1nnc(Cn2cnc3ccccc32)o1	inactive	
COc1ccc(C(=O)N(Cc2ccco2)C(C(=O)NC2CCCC2)c2ccc(O)cc2)cc1OC (stereo not drawn)	inconclusive: 28.2 µM [inhibitor, single point]	
COc1cccc2sc(N(CCCN(C)C)C(=O)C(c3ccccc3)c3ccccc3)nc12	inconclusive: 11.2 µM [inhibitor, single point]	
CCc1cccc(NC(=O)C2Cc3ccccc3N2C(=O)c2ccccc2)c1 (stereo not drawn)	inactive	
COc1ccc(-n2nnc(-c3nsc(NC(=O)c4cccs4)n3)c2C)cc1OC	inactive	
O=C(CSc1ccccc1C(=O)N1CCN(c2ccc([N+](=O)[O-])cc2)CC1)N1CCCC1	inconclusive: 11.2 µM [inhibitor, single point]	
[O-]/C(=C(\C(=S)Nc1ccc(SC(F)F)cc1)[n+]1ccccc1)c1cc(Cl)ccc1Cl	inactive	

Compound	Potency	activity change, negative = inhibition
O=C(CS(=O)c1ccc(C(F)(F)F)cc1[N+](=O)[O-])Oc1ccccc1 (stereo not drawn)	inactive	
COc1ccc(CCN2C(=O)N(c3ccc(C)cc3)C(=O)C2CC(=O)Nc2ccc(F)cc2)cc1 (stereo not drawn)	inactive	
Cc1ccc(S(=O)(=O)CC(CN2CCCCC2)N2CCCCC2)cc1 (stereo not drawn)	inconclusive: 0.501 µM [inhibitor, full curve, poor fit]	
O=C(/C=C/c1cn(-c2ccccc2)nc1-c1cccnc1)c1ccco1	inconclusive: 25.1 µM [inhibitor, single point]	
CCCN(CC1CC1)C(=S)NC(=O)c1ccccc1Br	inconclusive: 2.51 µM [inhibitor, partial curve, poor fit]	
CC(C)C(=O)Nc1ccc2oc(-c3cc(F)c(F)cc3Cl)nc2c1	inactive	
Cc1ccc(C(=O)N/C(=C\c2ccc(-c3ccccc3[N+](=O)[O-])o2)C(=O)NCCN(C)C)cc1	inactive	
CCC1Oc2ccc(C)cc2N(CC(=O)NCCCN2CCN(Cc3ccccc3)CC2)C1=O (stereo not drawn)	inconclusive: 7.94 µM [inhibitor, partial curve, poor fit]	
COc1cccc(CNC(=S)Nc2cccc(Cl)c2C)c1	inconclusive: 20 µM [inhibitor, single point]	
O=C(CN1CCCC1)Nc1ccc(S(=O)(=O)N2CCCCC2)cc1	inactive	
COCCNC(=O)CN1C(=O)c2cccc3cccc1c23	inactive	
O=C(NC(=S)Nc1ccc2c(c1)OCCO2)c1cccc2ccccc12	inconclusive: 10 µM [inhibitor, single point]	
Cc1ccc(N2C(=O)[C@@H]3C(c4cccnc4)=NO[C@@H]3C2=O)c(C)c1	inactive	
Cc1cc(C)c(CN2CCC(n3nccc3NC(=O)CCOc3ccccc3)CC2)cc1C	inconclusive: 12.6 µM [inhibitor, single point]	
CC(CCC(C)C(C)(C)C)[C@@H]1CC[C@H]2C3C[C@H](OS(O)(=S)=S)[C@H]4C[C@H](OS(O)(=S)=S)[C@@H](OS(O)(=S)=S)C[C@]4(C)[C@H]3CC[C@]12C (stereo partly drawn) (tested in a mixture with another compound)	inconclusive: 12.6 µM [inhibitor, single point]	
CCc1ccc(CSc2nc(-c3ccccc3OC)nc3c2Cc2c(CO)cnc(C)c2O3)cc1	inactive	
O=C(c1ccc(Cl)c(Cl)c1)N1CCC(=O)N(C(COCc2ccccc2)Cc2ccccc2)CC1 (stereo not drawn)	inconclusive: 12.6 µM [inhibitor, single point]	
CCOC(=O)C1(Cc2ccc(Cl)cc2)CCN(C(C)Cc2ccc(O)c(OC)c2)CC1 (stereo not drawn)	inconclusive: 28.2 µM [inhibitor, single point]	
CC(=O)c1cccc(Nc2cc(C)nc3ccccc23)c1	inconclusive: 11.2 µM [inhibitor, partial curve, poor fit]	
C/C(=N\Nc1nccnc1Cl)c1ccc(Br)cc1	inconclusive: 28.2 µM [inhibitor, single point]	
Cc1cc(C)cc(NC(=O)C2CCC(CNC(=O)[C@@H]3Cc4ccccc4CN3)CC2)c1 (stereo partly drawn)	inactive	
Cc1ccc(-c2cc(NC(=O)C(C)Oc3ccc(C)c(C)c3)on2)cc1 (stereo not drawn)	inactive	
COc1ccc(CNc2ccc3cc(S(=O)(=O)N4CCCCC4)ccc3n2)cc1	inactive	

Compound	Potency	activity change, negative = inhibition
CCNc1nc2c(c(=O)[nH]c(=O)n2C)n1CC(O)COc1ccc(Cl)cc1Cl (stereo not drawn)	inconclusive: 1.58 µM [inhibitor, full curve, poor fit]	
CCn1c(N)[n+](CC(=O)Nc2ccc(SC(F)F)cc2)c2ccccc21	inconclusive: 28.2 µM [inhibitor, single point]	
COc1ccccc1/C=C/C(=O)Nc1cccc(C(C)=O)c1	inconclusive: 28.2 µM [inhibitor, single point]	
COc1ccc(Cn2ccnc2SCC(=O)Nc2ccc(C)cc2C)cc1	inactive	
Cc1cc(OCCCCCNCCO)cc(C)c1Cl	inconclusive: 28.2 µM [inhibitor, single point]	
Cc1ccc(CNC(=O)CN(c2ccc(C(C)C)cc2)S(=O)(=O)c2c(C)n[nH]c2C)cc1	inactive	
O=C(NC1CCCN(Cc2ccc(Cl)cc2)C1)c1c(F)ccc(F)c1F (stereo not drawn)	inconclusive: 28.2 µM [inhibitor, single point]	
COc1cc(CN(C)CC2CCCN(CCc3ccccc3F)C2)cc(Cl)c1OC (stereo not drawn)	inconclusive: 31.6 µM [inhibitor, single point]	
COc1ccc(-c2cccc3c2NC(=O)C3=O)cc1OC	inactive	
CC(=O)Nc1ccc(Nc2c([N+](=O)[O-])cc(S(C)(=O)=O)cc2[N+](=O)[O-])cc1	inconclusive: 28.2 µM [inhibitor, single point]	
Cc1ccc(-c2cccc(CN3CCN(C4CCN(C(C)C)CC4)C(CCO)C3)c2)o1 (stereo not drawn)	inconclusive: 10 µM [inhibitor, single point]	
Cc1ccc(NC(=O)c2cnc3ccccc3n2)cc1C	inconclusive: 28.2 µM [inhibitor, single point]	
COc1ccccc1Cn1c(CNS(=O)(=O)c2ccccc2Cl)nc2cccnc21	inactive	
COc1ccc(C(=O)/C=C/c2ccc(O)cc2)c(O)c1C/C=C(\C)CCC=C(C)C	inconclusive: 15.8 µM [inhibitor, single point]	
COc1ccc(NC(=O)c2nnn(Cc3nc(-c4cc(OC)c(OC)c(OC)c4)oc3C)c2C)cc1	inactive	
CC1(C)CC(=O)c2c(Cc3ccccc3)noc2C1		inactive: -0.427% [at 0.307 µM]
Cn1cc(CN2CCCC(C(=O)Nc3cccc(-c4cc5ccccc5[nH]4)c3)C2)cn1 (stereo not drawn)	inconclusive: 1.58 µM [inhibitor, partial curve, poor fit]	
CCCCN(CC)CCNC(=O)c1cc2c(-c3ccccc3F)nn(C)c2s1	inconclusive: 5.62 µM [inhibitor, full curve, poor fit]	
CSc1cccc(NC(=O)C2CCN(c3ncnc4c3nc3n4CCCCC3)CC2)c1	inactive	
O=C(NC(=S)Nc1ccc(N2CCOCC2)cc1)c1cccc(Cl)c1	inconclusive: 10 µM [inhibitor, single point]	
CC(C)(C)c1ccc(Oc2nc3ccccn3c(=O)c2/C=C(\C#N)c2nc3ccccc3[nH]2)cc1	inactive	
O=Cc1s/c(=N\S(=O)(=O)c2ccccc2)n(CCCCl)c1Cl	inconclusive: 5.01 µM [inhibitor, full curve]	
